{
  "source": "paper PMC4336329",
  "about": "(PLoS ONE, 2015)",
  "note": "Out of some 310,000 compounds screened, about 2,200 (0.71%) showed an effect of 50% or more. The effect is printed as a negative number. Some of the results follow.",
  "data": [
    {"biological_target": "human ether-à-go-go-related gene (hERG) potassium channel (human, UniProt Q12809)", "sequence (Q12809 whole entry, looked up)": "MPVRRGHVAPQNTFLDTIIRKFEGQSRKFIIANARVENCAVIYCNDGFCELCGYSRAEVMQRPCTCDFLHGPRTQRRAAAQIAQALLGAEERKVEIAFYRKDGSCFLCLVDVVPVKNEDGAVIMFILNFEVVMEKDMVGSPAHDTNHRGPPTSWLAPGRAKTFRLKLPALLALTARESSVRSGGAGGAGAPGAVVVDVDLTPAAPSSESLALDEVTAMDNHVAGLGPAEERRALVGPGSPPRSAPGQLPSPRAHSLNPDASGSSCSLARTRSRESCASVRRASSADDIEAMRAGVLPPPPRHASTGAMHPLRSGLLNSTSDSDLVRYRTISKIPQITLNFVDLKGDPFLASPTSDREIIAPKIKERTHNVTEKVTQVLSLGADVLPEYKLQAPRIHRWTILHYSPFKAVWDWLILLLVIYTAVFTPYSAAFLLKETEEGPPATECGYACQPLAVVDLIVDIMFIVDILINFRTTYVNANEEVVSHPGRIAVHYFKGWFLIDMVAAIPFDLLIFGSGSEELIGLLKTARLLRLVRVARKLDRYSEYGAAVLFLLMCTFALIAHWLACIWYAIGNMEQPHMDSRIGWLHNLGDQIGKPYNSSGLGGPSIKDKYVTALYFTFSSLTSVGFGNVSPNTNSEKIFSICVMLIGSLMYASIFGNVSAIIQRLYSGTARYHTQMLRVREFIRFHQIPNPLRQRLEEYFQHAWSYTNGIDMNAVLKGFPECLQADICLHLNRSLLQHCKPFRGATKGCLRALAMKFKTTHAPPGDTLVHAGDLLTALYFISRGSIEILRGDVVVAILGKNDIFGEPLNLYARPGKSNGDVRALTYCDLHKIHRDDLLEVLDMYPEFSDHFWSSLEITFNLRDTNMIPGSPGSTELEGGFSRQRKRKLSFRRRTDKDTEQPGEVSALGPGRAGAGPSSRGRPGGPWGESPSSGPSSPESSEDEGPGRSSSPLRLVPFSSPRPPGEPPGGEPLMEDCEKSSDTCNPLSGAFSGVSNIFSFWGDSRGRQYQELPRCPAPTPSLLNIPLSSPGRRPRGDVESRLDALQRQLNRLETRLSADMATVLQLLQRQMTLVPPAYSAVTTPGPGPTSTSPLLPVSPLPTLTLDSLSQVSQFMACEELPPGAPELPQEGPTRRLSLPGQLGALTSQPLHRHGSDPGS", "test": "primary screen, population patch clamp on CHO cells stably expressing hERG", "units": {"hERG current change (%, negative = inhibition) at 1uM": "%"}, "values": [
      {"smiles": "NC(=O)NC(=O)CC1S/C(=N/N=C2\\CSC(=O)N2)NC1=O", "note": "(stereo not shown)", "hERG current change (%, negative = inhibition) at 1uM": 6.42},
      {"smiles": "O=S(=O)(N1CCCCC1)N1CCN(CC(O)COc2ccc3cc(Br)ccc3c2)CC1", "note": "(stereo not shown)", "hERG current change (%, negative = inhibition) at 1uM": 3.6},
      {"smiles": "COc1ccc(/C=C(/NC(=O)c2ccccc2)C(=O)N/N=C/c2sccc2C)cc1", "hERG current change (%, negative = inhibition) at 1uM": 3.48},
      {"smiles": "Cc1cc(C)nc(N2CCCC(C(=O)Nc3nc4ccc(S(C)(=O)=O)cc4s3)C2)n1", "note": "(stereo not shown)", "hERG current change (%, negative = inhibition) at 1uM": -1.99},
      {"smiles": "COc1ccccc1C1C(C(=O)c2ccco2)=C(O)C(=O)N1c1cc(C)on1", "note": "(stereo not shown)", "hERG current change (%, negative = inhibition) at 1uM": 3.73},
      {"smiles": "O=C(Nc1nc2ccc(S(=O)(=O)N3CCOCC3)cc2s1)c1cccs1", "hERG current change (%, negative = inhibition) at 1uM": 13.3},
      {"smiles": "Brc1ccc2c(c1)C(c1ccc(N3CCOCC3)cc1)=NNC(c1cccs1)=N2", "hERG current change (%, negative = inhibition) at 1uM": 8.38},
      {"smiles": "Cc1ccc(CN2CCN(CC(=O)N3CCC(C(N)=O)CC3)C2=O)cc1", "hERG current change (%, negative = inhibition) at 1uM": 9.62},
      {"smiles": "O=C(Nc1nnc(SCc2ccccc2Cl)s1)C1COc2ccccc2O1", "note": "(stereo not shown)", "hERG current change (%, negative = inhibition) at 1uM": 17.7},
      {"smiles": "OCCNC(=S)Nc1ccc2c(c1)OCCO2", "hERG current change (%, negative = inhibition) at 1uM": 11.7},
      {"smiles": "Cn1cccc1/C=N/NC(=O)c1cccnc1", "hERG current change (%, negative = inhibition) at 1uM": 11.2},
      {"smiles": "COc1ccc(NC(=O)CSc2nc3[nH]c(=O)cc(O)c3s2)cc1OC", "hERG current change (%, negative = inhibition) at 1uM": 9.53},
      {"smiles": "O=C(NCC(=O)N(Cc1ccccc1)C(C(=O)NC1CCCCC1)c1ccco1)c1ccco1", "note": "(stereo not shown)", "hERG current change (%, negative = inhibition) at 1uM": -10.8},
      {"smiles": "Cc1cc(C(=O)NCCc2ccc(Cl)cc2)c2ccccc2n1", "hERG current change (%, negative = inhibition) at 1uM": -0.0711},
      {"smiles": "O=C(NCc1cccc(C(F)(F)F)c1)C1CCN(c2ncccn2)CC1", "hERG current change (%, negative = inhibition) at 1uM": -16.6},
      {"smiles": "O=C(Cn1cc2c(n1)CCCC2)Nc1cc(-c2cccc(Cl)c2)no1", "hERG current change (%, negative = inhibition) at 1uM": 10.7},
      {"smiles": "CCCCn1c(N)c(N(CCOC)C(=O)CSCc2cccc(C)c2)c(=O)[nH]c1=O", "hERG current change (%, negative = inhibition) at 1uM": 16.5},
      {"smiles": "CCCCCc1nnc(NC(=O)C2CCCO2)s1", "note": "(stereo not shown)", "hERG current change (%, negative = inhibition) at 1uM": 8.58},
      {"smiles": "COc1ccccc1NC(=S)N1CCN(Cc2ccc3c(c2)OCO3)CC1", "hERG current change (%, negative = inhibition) at 1uM": 13.7},
      {"smiles": "COc1ccc(CCNC(=O)c2cccc([N+](=O)[O-])c2)cc1OC", "hERG current change (%, negative = inhibition) at 1uM": 3.3},
      {"smiles": "O=C(/C=C/Nc1cccc(O)c1)c1ccccc1", "hERG current change (%, negative = inhibition) at 1uM": 12.5},
      {"smiles": "CCN(CC)C(=O)c1csc(Nc2ccc(C)cc2)n1", "hERG current change (%, negative = inhibition) at 1uM": -12.1},
      {"smiles": "COc1ccc(-c2cc3ccc(OCc4nn[nH]n4)cc3oc2=O)cc1", "hERG current change (%, negative = inhibition) at 1uM": -12.2},
      {"smiles": "CC(C)C(C)NC(=O)COc1ccc([N+](=O)[O-])cc1Cl", "note": "(stereo not shown)", "hERG current change (%, negative = inhibition) at 1uM": 6.92},
      {"smiles": "CCCc1nnc(NC(=O)CCC(=O)N2CCN(Cc3ccc(C)cc3C)CC2)s1", "hERG current change (%, negative = inhibition) at 1uM": -2.14},
      {"smiles": "C=C1c2cc(C)ccc2NC(=O)N1c1ccc(C)cc1", "hERG current change (%, negative = inhibition) at 1uM": 10.6},
      {"smiles": "O=C(O)[C@@H]1CSC2c3ccccc3C(=O)N21", "note": "(stereo partly shown)", "hERG current change (%, negative = inhibition) at 1uM": 13.9},
      {"smiles": "CN1C(=O)[C@H]2[C@@H](C3CC3)N3C(=O)CN(CC4CC4)C(=O)[C@@]3(C)[C@H]2C1=O", "hERG current change (%, negative = inhibition) at 1uM": 16.9},
      {"smiles": "CN(C)CCNc1ccc(Cl)cc1[N+](=O)[O-]", "hERG current change (%, negative = inhibition) at 1uM": 1.54},
      {"smiles": "CCCN1C2CCCC1CC(NC(=O)NC13CC4CC(CC(C4)C1)C3)C2", "note": "(stereo not shown)", "hERG current change (%, negative = inhibition) at 1uM": -11.7},
      {"smiles": "Cc1ccccc1NC(=O)C1C2CCCCC21", "note": "(stereo not shown)", "hERG current change (%, negative = inhibition) at 1uM": 3.79},
      {"smiles": "CC1CC(C)CN(S(=O)(=O)c2ccc3c(c2)oc(=O)n3CC(=O)N2CCOCC2)C1", "note": "(stereo not shown)", "hERG current change (%, negative = inhibition) at 1uM": 10.6},
      {"smiles": "Cc1ccnc(NC(=O)C(C)n2cc([N+](=O)[O-])cn2)c1", "note": "(stereo not shown)", "hERG current change (%, negative = inhibition) at 1uM": 8.07},
      {"smiles": "CC(=O)Nc1ccc(S(=O)(=O)NC2(C(F)(F)F)NC(=O)N(Cc3ccccc3)C2=O)cc1", "note": "(stereo not shown)", "hERG current change (%, negative = inhibition) at 1uM": 19.3},
      {"smiles": "COc1cccc(CN(C)C(=O)c2ccc(NC(=O)CC3SC(N4CCCC4)=NC3=O)cc2)c1OC", "note": "(stereo not shown)", "hERG current change (%, negative = inhibition) at 1uM": 2.54},
      {"smiles": "O=C(COC(=O)c1ccccc1OCc1ccc(F)cc1)NCC1CCCO1", "note": "(stereo not shown)", "hERG current change (%, negative = inhibition) at 1uM": 5.17},
      {"smiles": "COC(=O)C1=C(c2ccc(OC)c(OC)c2)C[C@@H]2CC[C@H]1N2C(=O)NCCO", "hERG current change (%, negative = inhibition) at 1uM": 6.3},
      {"smiles": "Cc1ccc(NC(=O)Cc2ccccc2Cl)cc1S(=O)(=O)N(C)C", "hERG current change (%, negative = inhibition) at 1uM": 7.27},
      {"smiles": "Cc1cc(C(=O)CN2CCCC2)c(C)n1-c1ccc(Cl)cc1", "hERG current change (%, negative = inhibition) at 1uM": 24.6},
      {"smiles": "O=C(Cn1ncc2c(=O)oc3ccccc3c21)NCCCN1CCCC1=O", "hERG current change (%, negative = inhibition) at 1uM": 6.64},
      {"smiles": "COc1cc(Cl)c(C)cc1NC(=O)COC(=O)/C=C/c1c(C)nn(C2CCS(=O)(=O)C2)c1Cl", "note": "(stereo not shown)", "hERG current change (%, negative = inhibition) at 1uM": 11.7},
      {"smiles": "COC(CNC(=O)c1ccc2c(c1)ncn2-c1cccc(C)c1)OC", "hERG current change (%, negative = inhibition) at 1uM": 8.64},
      {"smiles": "CCCCCOc1ccc(CSC2=NCCN2)cc1[N+](=O)[O-]", "hERG current change (%, negative = inhibition) at 1uM": -60}
    ]}
  ]
}
